Laboratory results as given in patent US12459974B2, “Bicyclic peptide ligands specific for Nectin-4” (priority 2018, dated 2025).
At least one peptide structure holds a part that was inferred or is arguable (an end, a ring closure or a residue). Some entries repeat one wording, which the source may state once for all of them. Some of these results come from one statement about several compounds together. *1 amine or outer side, *2 acyl side, *3 side chain or, on linkers, in order; H or OH if unused. Where a SMILES comes first, the peptide text is derived from it. Bridges are numbered along the chain shown (N, C = ends). Roman numbers before positions name the chains, in order. [ ]: non-standard residue; d: D form. The star is where a group is joined. TATA = O=C(CC[*:1])N1CN(C(=O)CC[*:2])CN(C(=O)CC[*:3])C1; Dolaproine = CO[C@@H]([C@@H]1CCCN1)[C@@H](C)C(=O)O; Dil = CC[C@H](C)[C@H](NC)[C@@H](CC(=O)O)OC; 1Nal = N[C@@H](Cc1cccc2ccccc12)C(=O)O; X3 = O=C(CCCC(=O)[*:2])NCCC(=O)[*:1]; PABC = O=C(OCc1ccc(N[*:1])cc1)[*:2]; X4 = C[C@@H](N*)[C@@H](O)c1ccccc1; Hyp = O=C(O)[C@@H]1C[C@@H](O)CN1; hArg = N=C(N)NCCCC[C@H](N)C(=O)O; Cit = NC(=O)NCCC[C@H](N)C(=O)O; NMeV = CN[C@H](C(=O)O)C(C)C; Sar = CNCC(=O)O

Columns and labels:
[1] = system: Panc2.13 xenograft; assay: Example 3: in vivo efficacy in Panc2.13 xenograft (pancreatic cancer model) in Balb/c nude mice; set-up: species or system Mus Musculus; conditions: 5 mg/kg qw
[2] = system: A549 xenograft; assay: Example 9.1: in vivo efficacy in A549 xenograft in Balb/c nude mice; set-up: species or system Mus Musculus; conditions: 5 mg/kg qw; average
[3] = system: HCT116 xenograft; assay: Example 9.2: in vivo efficacy in HCT116 xenograft in Balb/c nude mice; set-up: species or system Mus Musculus; conditions: 5 mg/kg qw
[4] = system: Panc2.13 xenograft; assay: Example 9.7: in vivo efficacy in Panc2.13 xenograft in Balb/c nude mice; conditions: 5 mg/kg qw
[5] = system: HT-1376 xenograft; assay: Example 9.3: in vivo efficacy in HT-1376 xenograft in CB17-SCID mice; set-up: species or system Mus Musculus; conditions: 5 mg/kg qw
[6] = system: HT-1376 xenograft; assay: Example 2: in vivo efficacy in HT-1376 xenograft (bladder cancer model) in CB17-SCID mice
[7] = system: NCI-H292 xenograft; assay: Example 1: in vivo efficacy in NCI-H292 xenograft (NSCLC model) in BALB/c nude mice; set-up: species or system Mus Musculus
[8] = target: T1, human Nectin-4 (Homo sapiens, UniProt Q96NY8); assay: Nectin-4 Biacore SPR binding assay
T1 sequence (Q96NY8 32-349): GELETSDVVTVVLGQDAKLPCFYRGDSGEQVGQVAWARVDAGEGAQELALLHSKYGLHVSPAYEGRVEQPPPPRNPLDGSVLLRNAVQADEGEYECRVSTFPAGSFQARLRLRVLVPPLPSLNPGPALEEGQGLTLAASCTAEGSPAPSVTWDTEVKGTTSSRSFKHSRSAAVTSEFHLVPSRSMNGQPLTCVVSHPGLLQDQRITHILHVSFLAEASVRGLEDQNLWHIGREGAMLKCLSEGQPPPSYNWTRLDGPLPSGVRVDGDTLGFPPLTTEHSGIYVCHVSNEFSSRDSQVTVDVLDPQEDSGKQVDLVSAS

CC[C@H](C)[C@@H]([C@@H](CC(=O)N1CCC[C@H]1[C@H](OC)[C@@H](C)C(=O)N[C@H](C)[C@@H](O)c1ccccc1)OC)N(C)C(=O)[C@@H](NC(=O)[C@H](C(C)C)N(C)C(=O)OCc1ccc(NC(=O)[C@H](CCCNC(N)=O)NC(=O)[C@@H](NC(=O)CCCC(=O)NCCC(=O)N(C)CC(=O)N(C)CC(=O)N(C)CC(=O)N(C)CC(=O)N(C)CC(=O)N(C)CC(=O)N(C)CC(=O)N(C)CC(=O)N(C)CC(=O)N(C)CC(=O)N[C@H]2CSCCC(=O)N3CN4CN(C3)C(=O)CCSC[C@H](NC(=O)[C@@H](CCCNC(=N)N)NC(=O)[C@H](Cc3cccc5ccccc35)NC(=O)[C@@H]3CCCN3C2=O)C(=O)N[C@@H](CCSC)C(=O)N[C@@H](CCCCNC(=N)N)C(=O)N[C@@H](CC(=O)O)C(=O)N[C@@H](Cc2c[nH]c3ccccc23)C(=O)N[C@@H](CO)C(=O)N[C@@H]([C@@H](C)O)C(=O)N2CCC[C@H]2C(=O)N2C[C@H](O)C[C@H]2C(=O)N[C@@H](Cc2c[nH]c3ccccc23)C(=O)N[C@H](C(N)=O)CSCCC4=O)C(C)C)cc1)C(C)C [BCY8255, MMAE-PABC-Cit-Val-Glutaryl-BCY8235] (I: [Sar][Sar][Sar][Sar][Sar][Sar][Sar][Sar][Sar][Sar]CP[1Nal][dR]CM[hArg]DWSTP[Hyp]WC-NH2 / II: V[Cit][PABC][NMeV]V[Dil][Dolaproine]-X4; linker I:11-I:15-I:25 via TATA; linker I:N-II:N via X3)
bodyweight loss [1]: over 20% | bodyweight loss [2]: > 10% | bodyweight loss [3]: over 20% | bodyweight loss [4]: over 20%

CC[C@H](C)[C@@H]([C@@H](CC(=O)N1CCC[C@H]1[C@H](OC)[C@@H](C)C(=O)N[C@H](C)[C@@H](O)c1ccccc1)OC)N(C)C(=O)[C@@H](NC(=O)[C@H](C(C)C)N(C)C(=O)OCc1ccc(NC(=O)[C@H](CCCNC(N)=O)NC(=O)[C@@H](NC(=O)CCCC(=O)NCCC(=O)N(C)CC(=O)N(C)CC(=O)N(C)CC(=O)N(C)CC(=O)N(C)CC(=O)N(C)CC(=O)N(C)CC(=O)N(C)CC(=O)N(C)CC(=O)N(C)CC(=O)N[C@H]2CSCCC(=O)N3CN4CN(C3)C(=O)CCSC[C@H](NC(=O)[C@@H](CCCNC(=N)N)NC(=O)[C@H](Cc3cccc5ccccc35)NC(=O)[C@@H]3CCCN3C2=O)C(=O)N[C@@H](CC(C)C)C(=O)N[C@@H](CCCCNC(=N)N)C(=O)N[C@@H](Cc2c[nH]cn2)C(=O)N[C@@H](Cc2c[nH]c3ccccc23)C(=O)N[C@@H](CO)C(=O)N[C@@H]([C@@H](C)O)C(=O)N2CCC[C@H]2C(=O)N2C[C@H](O)C[C@H]2C(=O)N[C@@H](Cc2c[nH]c3ccccc23)C(=O)N[C@H](C(N)=O)CSCCC4=O)C(C)C)cc1)C(C)C [BCY8253, MMAE-PABC-Cit-Val-Glutaryl-BCY8231] (I: [Sar][Sar][Sar][Sar][Sar][Sar][Sar][Sar][Sar][Sar]CP[1Nal][dR]CL[hArg]HWSTP[Hyp]WC-NH2 / II: V[Cit][PABC][NMeV]V[Dil][Dolaproine]-X4; linker I:11-I:15-I:25 via TATA; linker I:N-II:N via X3)
bodyweight loss [1]: over 20% | bodyweight loss [2]: > 10% | bodyweight loss [3]: over 20% | animal bodyweight loss [5]: over 10% | bodyweight loss [4]: over 20% | animal bodyweight loss ([6]; 5 mg/kg qw): over 10%

CC[C@H](C)[C@@H]([C@@H](CC(=O)N1CCC[C@H]1[C@H](OC)[C@@H](C)C(=O)N[C@H](C)[C@@H](O)c1ccccc1)OC)N(C)C(=O)[C@@H](NC(=O)[C@H](C(C)C)N(C)C(=O)OCc1ccc(NC(=O)[C@H](CCCNC(N)=O)NC(=O)[C@@H](NC(=O)CCCC(=O)NCCC(=O)N(C)CC(=O)N(C)CC(=O)N(C)CC(=O)N(C)CC(=O)N(C)CC(=O)N(C)CC(=O)N(C)CC(=O)N(C)CC(=O)N(C)CC(=O)N(C)CC(=O)N[C@H]2CSCCC(=O)N3CN4CN(C3)C(=O)CCSC[C@H](NC(=O)[C@@H](CCCNC(=N)N)NC(=O)[C@H](Cc3cccc5ccccc35)NC(=O)[C@@H]3CCCN3C2=O)C(=O)N[C@@H](CCSC)C(=O)N[C@@H](CCCCNC(=N)N)C(=O)N[C@@H](CC(N)=O)C(=O)N[C@@H](Cc2c[nH]c3ccccc23)C(=O)N[C@@H](CO)C(=O)N[C@@H]([C@@H](C)O)C(=O)N2CCC[C@H]2C(=O)N2C[C@H](O)C[C@H]2C(=O)N[C@@H](Cc2c[nH]c3ccccc23)C(=O)N[C@H](C(N)=O)CSCCC4=O)C(C)C)cc1)C(C)C [BCY8254, MMAE-PABC-Cit-Val-Glutaryl-BCY8232] (I: [Sar][Sar][Sar][Sar][Sar][Sar][Sar][Sar][Sar][Sar]CP[1Nal][dR]CM[hArg]NWSTP[Hyp]WC-NH2 / II: V[Cit][PABC][NMeV]V[Dil][Dolaproine]-X4; linker I:11-I:15-I:25 via TATA; linker I:N-II:N via X3)
antitumor activity (in words) ([7]; 1 mg/kg qw): didn't produce significant antitumor activity | Tumor volume ([7]; 1/3/5 mpk qw iv, day 0): 408 ± 65 mm^3 | Tumor volume ([7]; 1/3/5 mpk qw iv, day 2): 442 ± 48 mm^3 | Tumor volume ([7]; 1/3/5 mpk qw iv, day 4): 601 ± 71 mm^3 | Tumor volume ([7]; 1/3/5 mpk qw iv, day 7): 737 ± 76 mm^3 | Tumor volume ([7]; 1/3/5 mpk qw iv, day 9): 747 ± 73 mm^3 | Tumor volume ([7]; 1/3/5 mpk qw iv, day 11): 565 ± 47 mm^3 | Tumor volume ([7]; 1/3/5 mpk qw iv, day 14): 543 ± 53 mm^3 | Tumor volume ([7]; 1/3/5 mpk qw iv, day 16): 599 ± 26 mm^3 | Tumor volume ([7]; 1/3/5 mpk qw iv, day 18): 623 ± 43 mm^3 | T/C ([7]; 1/3/5 mpk qw iv, day 21): 31.8% | TGI ([7]; 1/3/5 mpk qw iv, day 21): 84.1% | Tumor volume ([7]; 1/3/5 mpk qw iv, day 21): 684 ± 97 mm^3 | Tumor volume ([7]; 1/3/5 mpk qw iv, day 23): 740 ± 82 mm^3 | Tumor volume ([7]; 1/3/5 mpk qw iv, day 25): 771 ± 158 mm^3 | Tumor volume ([7]; 1/3/5 mpk qw iv, day 28): 840 ± 55 mm^3 | Tumor volume ([7]; 1/3/5 mpk qw iv, day 30): 856 ± 129 mm^3 | Tumor volume ([7]; 1/3/5 mpk qw iv, day 32): 883 ± 89 mm^3 | Tumor volume ([7]; 1/3/5 mpk qw iv, day 35): 1004 ± 171 mm^3 | antitumor activity (in words) ([7]; after increasing the dosage to 3 mg/kg from day 7): obvious antitumor activity | efficacy (in words) ([7]; after increasing the dosage to 5 mg/kg on day 21): not further improved | anti-tumour activity (in words) ([7]; mouse, in vivo): good anti-tumour activity | binding to human Nectin-4 in the SPR binding assay (in words) [8]: excellent binding | Kd ([8]; read-out: Human SPR Kd, bicyclic drug conjugates (Table 4)): 4.11 nM | antitumor activity (in words) ([6]; 1 mg/kg): slight antitumor activity | Tumor volume ([6]; 1/3 mpk, qw, iv (1 mg/kg first week, 3 mg/kg following 2 weeks), day 0 after start of treatment (Table 14)): 162 ± 17 mm^3 | Tumor volume ([6]; 1/3 mpk, qw, iv (1 mg/kg first week, 3 mg/kg following 2 weeks), day 2 (Table 14)): 156 ± 18 mm^3 | Tumor volume ([6]; 1/3 mpk, qw, iv (1 mg/kg first week, 3 mg/kg following 2 weeks), day 4 (Table 14)): 200 ± 22 mm^3 | Tumor volume ([6]; 1/3 mpk, qw, iv (1 mg/kg first week, 3 mg/kg following 2 weeks), day 7 (Table 14)): 305 ± 28 mm^3 | Tumor volume ([6]; 1/3 mpk, qw, iv (1 mg/kg first week, 3 mg/kg following 2 weeks), day 9 (Table 14)): 338 ± 55 mm^3 | Tumor volume ([6]; 1/3 mpk, qw, iv (1 mg/kg first week, 3 mg/kg following 2 weeks), day 11 (Table 14)): 326 ± 33 mm^3 | Tumor volume ([6]; 1/3 mpk, qw, iv (1 mg/kg first week, 3 mg/kg following 2 weeks), day 14 (Table 14)): 419 ± 36 mm^3 | Tumor volume ([6]; 1/3 mpk, qw, iv (1 mg/kg first week, 3 mg/kg following 2 weeks), day 16 (Table 14)): 429 ± 42 mm^3 | Tumor volume ([6]; 1/3 mpk, qw, iv (1 mg/kg first week, 3 mg/kg following 2 weeks), day 18 (Table 14)): 453 ± 34 mm^3 | Tumor volume ([6]; 1/3 mpk, qw, iv (1 mg/kg first week, 3 mg/kg following 2 weeks), day 21 (Table 14)): 539 ± 75 mm^3 | T/C ([6]; 3 mpk, qw, day 21 (Table 16)): 60.9% | TGI ([6]; 3 mpk, qw, day 21 (Table 16)): 47.4% | Tumor volume ([6]; 3 mpk, qw, day 21, Mean ± SEM (Table 16)): 539 ± 75 mm^3 | efficacy (in words) ([6]; after increasing dosage to 3 mg/kg from day 7): better efficacy | anti-tumour activity (in words) ([6]; mouse, in vivo): good anti-tumour activity
